This note sets out measurements from PMC5700166.

Only a part is listed here, and it is no random draw. The list includes weakly bound sequences.

What all share (assay): protein-binding microarray (PBM)
What all share (conditions): PBM: ~300 nM protein, 6 mM HEPES pH 7.8, 80 mM KCl, 0.5 mM EDTA, 0.5 mM EGTA, 6% glycerol, 35 ng/ul poly-dIdC, 1% milk, 1 h, room temperature; Ap Aiptasia and Nv Nematostella (sea anemones) / Co Capsaspora / Aq Amphimedon (sponge) / Dm Drosophila / Hu human; RHD is the Rel homology domain; high values mean tight binding; most listed sequences are background and not binding sites; double strand, one strand shown

For one assay, the target named is T1, GST-Ap-NF-kB RHD (UniProt A0A913YAJ5).
T1 sequence: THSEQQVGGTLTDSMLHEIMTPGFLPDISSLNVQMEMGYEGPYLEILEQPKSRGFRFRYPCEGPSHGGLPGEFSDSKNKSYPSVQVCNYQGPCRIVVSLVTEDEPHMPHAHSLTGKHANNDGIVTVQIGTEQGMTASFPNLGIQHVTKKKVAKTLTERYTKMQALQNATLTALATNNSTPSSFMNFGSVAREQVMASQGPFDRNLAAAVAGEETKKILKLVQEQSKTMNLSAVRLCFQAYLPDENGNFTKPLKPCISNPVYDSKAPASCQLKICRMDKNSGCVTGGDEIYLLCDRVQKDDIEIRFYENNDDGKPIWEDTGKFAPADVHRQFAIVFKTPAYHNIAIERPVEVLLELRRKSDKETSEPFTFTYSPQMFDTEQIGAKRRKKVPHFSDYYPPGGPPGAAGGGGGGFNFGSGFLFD

Assay [1] addresses T2, GST-Nv-NF-kB (Cys allele) (UniProt E5G601).
T2 sequence: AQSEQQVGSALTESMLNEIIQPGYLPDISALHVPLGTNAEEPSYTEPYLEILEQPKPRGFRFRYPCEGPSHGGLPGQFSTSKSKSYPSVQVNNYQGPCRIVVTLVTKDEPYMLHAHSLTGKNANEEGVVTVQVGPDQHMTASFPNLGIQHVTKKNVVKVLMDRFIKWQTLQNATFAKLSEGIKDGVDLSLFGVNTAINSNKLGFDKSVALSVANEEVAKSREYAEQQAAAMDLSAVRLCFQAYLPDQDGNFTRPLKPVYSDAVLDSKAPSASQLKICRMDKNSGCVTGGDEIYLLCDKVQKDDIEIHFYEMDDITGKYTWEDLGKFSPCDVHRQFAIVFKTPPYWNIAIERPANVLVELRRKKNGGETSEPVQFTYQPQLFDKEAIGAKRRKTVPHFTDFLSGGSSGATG

The next assay addresses T3, GST-Dm-Relish (UniProt Q94527).
T3 sequence: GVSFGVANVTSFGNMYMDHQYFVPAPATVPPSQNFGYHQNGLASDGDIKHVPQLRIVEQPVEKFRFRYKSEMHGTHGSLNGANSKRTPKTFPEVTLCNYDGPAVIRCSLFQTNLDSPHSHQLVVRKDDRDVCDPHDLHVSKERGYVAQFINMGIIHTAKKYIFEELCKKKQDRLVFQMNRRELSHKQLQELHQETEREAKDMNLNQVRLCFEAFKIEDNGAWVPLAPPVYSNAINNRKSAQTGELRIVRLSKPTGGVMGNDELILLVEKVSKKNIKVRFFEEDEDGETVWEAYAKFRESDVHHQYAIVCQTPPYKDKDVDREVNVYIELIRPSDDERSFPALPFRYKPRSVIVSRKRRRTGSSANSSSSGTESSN

The target of another assay is T4, GST-Aq-NF-kB (UniProt A9Y5G7).
T4 sequence: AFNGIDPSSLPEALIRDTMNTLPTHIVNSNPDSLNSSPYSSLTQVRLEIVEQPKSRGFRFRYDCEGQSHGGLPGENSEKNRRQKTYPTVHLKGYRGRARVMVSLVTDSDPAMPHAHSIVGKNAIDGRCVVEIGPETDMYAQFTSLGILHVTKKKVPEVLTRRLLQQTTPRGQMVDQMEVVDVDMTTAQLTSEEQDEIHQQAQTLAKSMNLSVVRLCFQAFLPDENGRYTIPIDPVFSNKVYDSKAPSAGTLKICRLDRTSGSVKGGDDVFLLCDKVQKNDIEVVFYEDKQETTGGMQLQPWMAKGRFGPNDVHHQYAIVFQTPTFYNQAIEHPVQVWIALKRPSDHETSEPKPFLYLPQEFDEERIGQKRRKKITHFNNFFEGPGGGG

A further assay addresses T5, GST-Co-NF-kB (UniProt F1ARL5).
T5 sequence: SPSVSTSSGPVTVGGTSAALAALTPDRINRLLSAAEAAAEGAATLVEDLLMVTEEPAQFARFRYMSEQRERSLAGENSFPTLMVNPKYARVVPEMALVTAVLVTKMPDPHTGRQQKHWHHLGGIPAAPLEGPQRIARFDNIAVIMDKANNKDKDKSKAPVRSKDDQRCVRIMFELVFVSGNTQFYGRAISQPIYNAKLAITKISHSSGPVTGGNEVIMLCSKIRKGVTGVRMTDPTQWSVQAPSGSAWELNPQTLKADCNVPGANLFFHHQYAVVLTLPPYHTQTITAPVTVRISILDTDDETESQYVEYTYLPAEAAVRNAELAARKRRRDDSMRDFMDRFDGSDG

Regarding “CCGATTAACATCACCCAAAGTTTTGATGTTAATCGGGTCTTGATTCGCTTGACGCTGCTG”, the binding signal in the assay with GST-Ap-NF-kB RHD was -0.134 z-score; in assay [1], -0.204 z-score; in the assay with GST-Dm-Relish, 0.979 z-score; with GST-Aq-NF-kB, 0.601 z-score.

For “CCGATTAACATCAGGGAAGCCCCTGATGTTAATCGGGTCTTGATTCGCTTGACGCTGCTG”, the binding signal in the assay with GST-Ap-NF-kB RHD was 9.42 z-score; in assay [1], 10.8 z-score; with GST-Dm-Relish, 10.3 z-score; in the assay with GST-Aq-NF-kB it was 9.75 z-score.

Consider “CCGATTAACATCAACCAATTCCCTGATGTTAATCGGGTCTTGATTCGCTTGACGCTGCTG”, for which the binding signal in the assay with GST-Ap-NF-kB RHD came to 2.49 z-score; in assay [1] it was 3.94 z-score; in the assay with GST-Dm-Relish, 0.721 z-score; with GST-Aq-NF-kB it was 3.16 z-score.

As to “CCGATTAACATCAGACATTTCCCTGATGTTAATCGGGTCTTGATTCGCTTGACGCTGCTG”, the binding signal stood at 2.94 z-score in the assay with GST-Ap-NF-kB RHD, 4.75 z-score in assay [1], 0.576 z-score in the assay with GST-Dm-Relish and 5.41 z-score with GST-Aq-NF-kB.

Consider “CCGATTAACATCAGAAGATCCCCTGATGTTAATCGGGTCTTGATTCGCTTGACGCTGCTG”, for which the binding signal came out at 7.16 z-score in the assay with GST-Ap-NF-kB RHD, 6.92 z-score in assay [1], 7.44 z-score in the assay with GST-Dm-Relish and 6.44 z-score with GST-Aq-NF-kB.

As for “CCGATTAACATCATATTCCCCCATGATGTTAATCGGGTCTTGATTCGCTTGACGCTGCTG”, the binding signal with GST-Ap-NF-kB RHD stood at 6.56 z-score; in the assay with GST-Co-NF-kB, 8.84 z-score; in the assay with GST-Aq-NF-kB, 5.97 z-score.

With “CCGATTAACATCAGGGGGAAACCTGATGTTAATCGGGTCTTGATTCGCTTGACGCTGCTG”, the binding signal in the assay with GST-Ap-NF-kB RHD came out at 8.24 z-score; in the assay with GST-Co-NF-kB, 9.35 z-score; in the assay with GST-Aq-NF-kB, 7.94 z-score.

With “CCGATTAACATCATCAGGGGAAATGATGTTAATCGGGTCTTGATTCGCTTGACGCTGCTG”, the binding signal came out at 5.62 z-score with GST-Ap-NF-kB RHD, 7.05 z-score in assay [1], 2.39 z-score in the assay with GST-Dm-Relish and 4.58 z-score with GST-Aq-NF-kB.

“CCGATTAACATCAGGGGGTGTAATGATGTTAATCGGGTCTTGATTCGCTTGACGCTGCTG”: the figures for the binding signal with GST-Ap-NF-kB RHD, in the assay with GST-Co-NF-kB and with GST-Aq-NF-kB were 3.57 z-score, 3.87 z-score and 3.21 z-score, respectively.

Consider “CCGATTAACATCAATTTTCCCCCTGATGTTAATCGGGTCTTGATTCGCTTGACGCTGCTG”, for which the binding signal with GST-Ap-NF-kB RHD was determined as 7.68 z-score; with GST-Co-NF-kB, 12 z-score; in the assay with GST-Aq-NF-kB, 6.79 z-score.

“CCGATTAACATCAAGTCCCCCAATGATGTTAATCGGGTCTTGATTCGCTTGACGCTGCTG”: the binding signal with GST-Ap-NF-kB RHD was determined as 4.26 z-score; in the assay with GST-Co-NF-kB it was 3.84 z-score; in the assay with GST-Aq-NF-kB it was 3.76 z-score.

On to “CCGATTAACATCAGCCATATTTGTGATGTTAATCGGGTCTTGATTCGCTTGACGCTGCTG”, for which the binding signal with GST-Ap-NF-kB RHD is -0.0115 z-score; in assay [1], -0.207 z-score; with GST-Dm-Relish, 0.452 z-score; with GST-Aq-NF-kB, -0.369 z-score.

For the sequence “CCGATTAACATCAGGCAAGCCCCTGATGTTAATCGGGTCTTGATTCGCTTGACGCTGCTG”, the results for the binding signal with GST-Ap-NF-kB RHD, in the assay with GST-Co-NF-kB and in the assay with GST-Aq-NF-kB were 2.62 z-score, 0.173 z-score and 5.11 z-score, respectively.

On to “CCGATTAACATCAAGAATCCCCCTGATGTTAATCGGGTCTTGATTCGCTTGACGCTGCTG”, for which the binding signal came to 9.83 z-score with GST-Ap-NF-kB RHD, 6.36 z-score with GST-Co-NF-kB and 7.61 z-score in the assay with GST-Aq-NF-kB.

With “CCGATTAACATCAGGCTATCCCCTGATGTTAATCGGGTCTTGATTCGCTTGACGCTGCTG”, the binding signal is 4.44 z-score with GST-Ap-NF-kB RHD, 2.18 z-score in the assay with GST-Co-NF-kB and 4.81 z-score with GST-Aq-NF-kB.

In the case of “CCGATTAACATCAGGCCATTCCCTGATGTTAATCGGGTCTTGATTCGCTTGACGCTGCTG”, the values for the binding signal in the assay with GST-Ap-NF-kB RHD, in the assay with GST-Co-NF-kB and with GST-Aq-NF-kB were 1.39 z-score, 0.178 z-score and 4.37 z-score, respectively.

On to “CCGATTAACATCAGGAATGTACCTGATGTTAATCGGGTCTTGATTCGCTTGACGCTGCTG”, for which the binding signal with GST-Ap-NF-kB RHD was 0.321 z-score; with GST-Co-NF-kB, -0.683 z-score; in the assay with GST-Aq-NF-kB it was 3.14 z-score.
